The values that follow come from paper PMC12820563.

The other results are listed elsewhere or left out. The list includes weakly bound sequences.

The assay concerns the target T1, MBP-FoxP3dN (UniProt Q99JB6).
T1 sequence: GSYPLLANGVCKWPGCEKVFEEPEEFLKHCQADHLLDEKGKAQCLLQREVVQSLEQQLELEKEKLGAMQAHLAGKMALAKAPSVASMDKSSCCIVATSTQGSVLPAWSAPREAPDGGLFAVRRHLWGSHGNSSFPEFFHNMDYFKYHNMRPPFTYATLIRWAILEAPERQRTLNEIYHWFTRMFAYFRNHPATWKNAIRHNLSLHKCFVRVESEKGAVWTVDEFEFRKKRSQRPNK
Briefly: PD-seq (MBP pull-down with sequencing). The note with it: 20 mM Tris-HCl pH 7.5, 100 mM NaCl, 1.5 mM MgCl2, 0.4 uM protein, 0.1 uM dsDNA library, 30 min, room temperature, amylose pull-down; high values mean tight binding; double strand, one strand shown.
As to “GATGATTGTTCTCCCAGCTGATGAATTGTTACGCTCGAGTAAACAAATTTTCCTAATCTTTCTGTTCAAGCGCCATCTAC”, the binding signal (RPM ratio (pull-down/input)) turned out to be 0.837.
The result for “GATGATTGTTCTCCCAGCTGATGAATTATATCTCTCGAGTAAACAAATTTTCCTAATCTTTCTGTTCAAGCGCCATCTAC” reads 0.584; that for “GATGATTGTTCTCCCAGCTGATGAATTAATTCGCTCGAGTAAACAAATTTTCCTAATCTTTCTGTTCAAGCGCCATCTAC”, 0.369; that for “GATGATTGTTCTCCCAGCTGATGAATTCTTGTCATCGAGTAAACAAATTTTCCTAATCTTTCTGTTCAAGCGCCATCTAC”, 0.625.
With “GATGATTGTTCTCCCAGCTGATGAATTGGTAATTTCGAGTAAACAAATTTTCCTAATCTTTCTGTTCAAGCGCCATCTAC”, the binding signal (RPM ratio (pull-down/input)) amounted to 0.629.
With “GATGATTGTTCTCCCAGCTGATGAATTGCATGGGTCGAGTAAACAAATTTTCCTAATCTTTCTGTTCAAGCGCCATCTAC”, the binding signal (RPM ratio (pull-down/input)) was 2.12.
On to “GATGATTGTTCTCCCAGCTGATGAATTGATGCTCTCGAGTAAACAAATTTTCCTAATCTTTCTGTTCAAGCGCCATCTAC”, for which the binding signal (RPM ratio (pull-down/input)) stood at 2.04.
With “GATGATTGTTCTCCCAGCTGATGAATTGACGTGTTCGAGTAAACAAATTTTCCTAATCTTTCTGTTCAAGCGCCATCTAC”, the binding signal (RPM ratio (pull-down/input)) is 0.695.
For “GATGATTGTTCTCCCAGCTGATGAATTGCGCGTGTCGAGTAAACAAATTTTCCTAATCTTTCTGTTCAAGCGCCATCTAC”, the binding signal (RPM ratio (pull-down/input)) came to 4.88.
The result for “GATGATTGTTCTCCCAGCTGATGAATTCTTTCTATCGAGTAAACAAATTTTCCTAATCTTTCTGTTCAAGCGCCATCTAC” reads 0.24; that for “GATGATTGTTCTCCCAGCTGATGAATTTTCCTATTCGAGTAAACAAATTTTCCTAATCTTTCTGTTCAAGCGCCATCTAC”, 0.286.
Regarding “GATGATTGTTCTCCCAGCTGATGAATTATGAGGGTCGAGTAAACAAATTTTCCTAATCTTTCTGTTCAAGCGCCATCTAC”, the binding signal (RPM ratio (pull-down/input)) worked out at 0.401.
“GATGATTGTTCTCCCAGCTGATGAATTCGCACAATCGAGTAAACAAATTTTCCTAATCTTTCTGTTCAAGCGCCATCTAC”: the binding signal (RPM ratio (pull-down/input)) turned out to be 0.383.
Regarding “GATGATTGTTCTCCCAGCTGATGAATTGTGCTGGTCGAGTAAACAAATTTTCCTAATCTTTCTGTTCAAGCGCCATCTAC”, the binding signal (RPM ratio (pull-down/input)) was found to be 1.35.
As to “GATGATTGTTCTCCCAGCTGATGAATTGATTGGCTCGAGTAAACAAATTTTCCTAATCTTTCTGTTCAAGCGCCATCTAC”, the binding signal (RPM ratio (pull-down/input)) was 1.19.
In the case of “GATGATTGTTCTCCCAGCTGATGAATTGGTGGGCTCGAGTAAACAAATTTTCCTAATCTTTCTGTTCAAGCGCCATCTAC”, the binding signal (RPM ratio (pull-down/input)) turned out to be 0.487.
Turning to “GATGATTGTTCTCCCAGCTGATGAATTTATTGGCTCGAGTAAACAAATTTTCCTAATCTTTCTGTTCAAGCGCCATCTAC”, the binding signal (RPM ratio (pull-down/input)) turned out to be 4.71.
For the sequence “GATGATTGTTCTCCCAGCTGATGAATTTTACGTGTCGAGTAAACAAATTTTCCTAATCTTTCTGTTCAAGCGCCATCTAC”, the binding signal (RPM ratio (pull-down/input)) was 0.455.
As to “GATGATTGTTCTCCCAGCTGATGAATTGGTATTCTCGAGTAAACAAATTTTCCTAATCTTTCTGTTCAAGCGCCATCTAC”, the binding signal (RPM ratio (pull-down/input)) stood at 1.76.
To “GATGATTGTTCTCCCAGCTGATGAATTGACTCACTCGAGTAAACAAATTTTCCTAATCTTTCTGTTCAAGCGCCATCTAC” belongs 0.407; to “GATGATTGTTCTCCCAGCTGATGAATTAATTTCGTCGAGTAAACAAATTTTCCTAATCTTTCTGTTCAAGCGCCATCTAC”, 0.808; to “GATGATTGTTCTCCCAGCTGATGAATTTGCTCTTTCGAGTAAACAAATTTTCCTAATCTTTCTGTTCAAGCGCCATCTAC”, 0.605.
As to “GATGATTGTTCTCCCAGCTGATGAATTGCTCGGGTCGAGTAAACAAATTTTCCTAATCTTTCTGTTCAAGCGCCATCTAC”, the binding signal (RPM ratio (pull-down/input)) is 0.34.
The result for “GATGATTGTTCTCCCAGCTGATGAATTGTTTACTTCGAGTAAACAAATTTTCCTAATCTTTCTGTTCAAGCGCCATCTAC” reads 7.35; that for “GATGATTGTTCTCCCAGCTGATGAATTAGACCACTCGAGTAAACAAATTTTCCTAATCTTTCTGTTCAAGCGCCATCTAC”, 0.405.
The result for “GATGATTGTTCTCCCAGCTGATGAATTGTTTAGATCGAGTAAACAAATTTTCCTAATCTTTCTGTTCAAGCGCCATCTAC” reads 5.2.
Turning to “GATGATTGTTCTCCCAGCTGATGAATTTGTTCCCTCGAGTAAACAAATTTTCCTAATCTTTCTGTTCAAGCGCCATCTAC”, the binding signal (RPM ratio (pull-down/input)) stood at 3.28.
As to “GATGATTGTTCTCCCAGCTGATGAATTTATCCTTTCGAGTAAACAAATTTTCCTAATCTTTCTGTTCAAGCGCCATCTAC”, the binding signal (RPM ratio (pull-down/input)) worked out at 0.717.
Regarding “GATGATTGTTCTCCCAGCTGATGAATTGTGGAAGTCGAGTAAACAAATTTTCCTAATCTTTCTGTTCAAGCGCCATCTAC”, the binding signal (RPM ratio (pull-down/input)) amounted to 0.274.
The result for “GATGATTGTTCTCCCAGCTGATGAATTTGCTTAATCGAGTAAACAAATTTTCCTAATCTTTCTGTTCAAGCGCCATCTAC” reads 1.39; that for “GATGATTGTTCTCCCAGCTGATGAATTAGCACTGTCGAGTAAACAAATTTTCCTAATCTTTCTGTTCAAGCGCCATCTAC”, 0.423.
For “GATGATTGTTCTCCCAGCTGATGAATTTTTCAGGTCGAGTAAACAAATTTTCCTAATCTTTCTGTTCAAGCGCCATCTAC”, the binding signal (RPM ratio (pull-down/input)) was 0.14.
